Experimental data published in publication PMC6377148.
Residue numbers refer to the chain shown, from its start. No constants are given. Whether binding was seen depends on the method and setting. Binding seen in cells or lysates may run through a third protein. Some binding calls cover weakened binding; strength is not graded here. Sequences can lack the tags named with a protein.

Chains of the proteins cited; added tags and fusions are not shown.
UniProt P49336: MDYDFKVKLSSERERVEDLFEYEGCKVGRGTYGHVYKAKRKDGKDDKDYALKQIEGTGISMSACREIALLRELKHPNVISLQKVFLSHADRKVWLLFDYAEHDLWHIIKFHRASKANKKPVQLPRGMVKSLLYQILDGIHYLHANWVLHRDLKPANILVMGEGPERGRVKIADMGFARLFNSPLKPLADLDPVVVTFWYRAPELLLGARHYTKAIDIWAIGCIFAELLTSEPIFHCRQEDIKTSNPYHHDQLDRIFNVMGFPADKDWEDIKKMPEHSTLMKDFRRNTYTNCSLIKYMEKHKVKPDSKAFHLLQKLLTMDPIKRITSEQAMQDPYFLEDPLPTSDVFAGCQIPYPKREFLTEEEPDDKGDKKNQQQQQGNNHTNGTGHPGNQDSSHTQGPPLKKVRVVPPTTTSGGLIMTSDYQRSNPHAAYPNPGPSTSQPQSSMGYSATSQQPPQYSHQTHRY

Legend:
Assay in all cases: co-IP; 293T transiently transfected with C-terminally 3×Flag-tagged MTBP; anti-FLAG antibody on Protein G Dynabeads, lysis buffer 20 mM HEPES, 150 mM NaCl, 10% glycerol, 0.1% Triton X-100, 1 h at 4°C; endogenous Treslin/TICRR and Cdk8 by immunoblot
[1] = molecular target: T1, MTBP-m1 (C413A), C-terminally 3×Flag-tagged (293T) (human) (UniProt Q96DY7)
T1 sequence: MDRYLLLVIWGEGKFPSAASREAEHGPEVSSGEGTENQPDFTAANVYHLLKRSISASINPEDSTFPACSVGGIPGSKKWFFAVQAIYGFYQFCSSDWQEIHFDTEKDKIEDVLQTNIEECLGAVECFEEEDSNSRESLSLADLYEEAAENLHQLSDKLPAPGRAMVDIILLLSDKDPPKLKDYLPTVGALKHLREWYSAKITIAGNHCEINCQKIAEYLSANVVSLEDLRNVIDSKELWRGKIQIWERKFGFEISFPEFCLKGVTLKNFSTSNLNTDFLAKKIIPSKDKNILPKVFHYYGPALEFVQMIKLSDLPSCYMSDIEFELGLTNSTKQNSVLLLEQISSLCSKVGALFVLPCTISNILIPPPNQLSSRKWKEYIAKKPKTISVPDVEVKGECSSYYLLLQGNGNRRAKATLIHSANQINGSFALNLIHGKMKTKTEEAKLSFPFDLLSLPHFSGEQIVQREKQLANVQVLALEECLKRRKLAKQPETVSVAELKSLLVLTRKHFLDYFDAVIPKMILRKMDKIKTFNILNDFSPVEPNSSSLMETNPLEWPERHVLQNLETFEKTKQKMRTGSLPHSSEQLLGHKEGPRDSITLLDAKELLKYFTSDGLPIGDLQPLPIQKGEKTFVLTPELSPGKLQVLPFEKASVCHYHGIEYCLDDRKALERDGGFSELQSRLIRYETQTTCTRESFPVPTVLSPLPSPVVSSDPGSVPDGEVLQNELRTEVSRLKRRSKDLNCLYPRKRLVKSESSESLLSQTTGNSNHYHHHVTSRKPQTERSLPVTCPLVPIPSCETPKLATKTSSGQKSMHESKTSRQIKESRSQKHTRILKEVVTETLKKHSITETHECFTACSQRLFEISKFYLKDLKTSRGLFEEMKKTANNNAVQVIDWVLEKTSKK

[2] = molecular target: T2, MTBP-m3–6, C-terminally 3×Flag-tagged (293T) (human) (UniProt Q96DY7)
T2 sequence: T1 sequence with A413C, Q423A, I424Q, N425A, G426Q

[3] = molecular target: T3, MTBP-m1/2, C-terminally 3×Flag-tagged (293T) (human) (UniProt Q96DY7)
T3 sequence: T1 sequence with A415Q

Measured: binding

Cdk8 (cyclin-dependent kinase 8), endogenous (from UniProt P49336 1-464) (enzyme)
binds: all assays above
